The supplement of paper PMC10369915
The list shows a part of the results. Cut-off read from the data, not from the text of the source: active = 3.2 or more and inactive = the rest. The signal is at background level for most entries.

Assays:
Experiment in all cases: enrichment score (SH2-bound / input frequency) (ratio); bacterial display of known human phosphotyrosine sites (pTyr-Var adds point mutants) read by sequencing; higher = stronger binding; tyrosines were phosphorylated by kinases first
Settings in all cases: peptide library: Human pTyr
SHP2 C-SH2 domain E139D = target: SHP2 C-SH2 domain E139D
[1] = target: SHP2 C-SH2 domain wild-type
SHP2 N-SH2 domain L43F = target: SHP2 N-SH2 domain L43F
SHP2 N-SH2 domain T42A = target: SHP2 N-SH2 domain T42A
SHP2 N-SH2 domain T52S = target: SHP2 N-SH2 domain T52S
[2] = target: SHP2 N-SH2 domain wild-type

Measured: enrichment score
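Note: displayed peptides selected on beads carrying the immobilized SH2 domain, with library peptides lacking any tyrosine serving as negative controls.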

DINNIDAYKKTTNGR [FGFR2_HUMAN_657_YA]
inactive: SHP2 C-SH2 domain E139D 0.898 | [1] 0.858 | SHP2 N-SH2 domain L43F 1.12 | SHP2 N-SH2 domain T42A 0.998 | SHP2 N-SH2 domain T52S 0.841 | [2] 0.899

KEHNFSFYPTFQSHP [FLT3_HUMAN_726]
inactive: SHP2 C-SH2 domain E139D 1.56 | [1] 1.22 | SHP2 N-SH2 domain L43F 1.07 | SHP2 N-SH2 domain T42A 0.998 | SHP2 N-SH2 domain T52S 1.14 | [2] 1.62

EENVRFIYEAWQGVE [F195B_HUMAN_41]
inactive: SHP2 C-SH2 domain E139D 0.944 | [1] 0.934 | SHP2 N-SH2 domain L43F 0.998 | SHP2 N-SH2 domain T42A 0.867 | SHP2 N-SH2 domain T52S 1.03 | [2] 0.99

TDPEALHYDAIDVEM [AFAP1_HUMAN_451_YA]
inactive: SHP2 C-SH2 domain E139D 1 | [1] 0.767 | SHP2 N-SH2 domain L43F 1.13 | SHP2 N-SH2 domain T42A 0.786 | SHP2 N-SH2 domain T52S 0.849 | [2] 1.2

NVKSEKVYTRHGVPI [FLOT1_HUMAN_56]
inactive: SHP2 C-SH2 domain E139D 1.05 | [1] 1.02 | SHP2 N-SH2 domain L43F 0.96 | SHP2 N-SH2 domain T42A 1.03 | SHP2 N-SH2 domain T52S 1.16 | [2] 1.09

SAPYGARYVGSMVAD [F16P1_HUMAN_245]
inactive: SHP2 C-SH2 domain E139D 0.452 | [1] 0.417 | SHP2 N-SH2 domain L43F 0.512 | SHP2 N-SH2 domain T42A 0.47 | SHP2 N-SH2 domain T52S 0.406 | [2] 0.377

MSSSAESYDEEEEDG [AFAP1_HUMAN_125_YA]
inactive: SHP2 C-SH2 domain E139D 1.2 | [1] 0.882 | SHP2 N-SH2 domain L43F 1.02 | SHP2 N-SH2 domain T42A 0.884 | SHP2 N-SH2 domain T52S 1.24 | [2] 1.37

ALETSRLYEDSGASS [FBXO5_HUMAN_142_YA]
inactive: SHP2 C-SH2 domain E139D 0.659 | [1] 0.711 | SHP2 N-SH2 domain L43F 0.573 | SHP2 N-SH2 domain T42A 0.488 | SHP2 N-SH2 domain T52S 0.568 | [2] 0.499

VDFREAEYDLKWEFP [FLT3_HUMAN_599_YA]
inactive: SHP2 C-SH2 domain E139D 1.09 | [1] 1 | SHP2 N-SH2 domain L43F 1.06 | SHP2 N-SH2 domain T42A 1.2 | SHP2 N-SH2 domain T52S 1.22 | [2] 1.2

DIHHIDAYKKTTNGR [FGFR1_HUMAN_654_YA]
inactive: SHP2 C-SH2 domain E139D 1.09 | [1] 0.786 | SHP2 N-SH2 domain L43F 1.07 | SHP2 N-SH2 domain T42A 0.722 | SHP2 N-SH2 domain T52S 0.914 | [2] 0.958

DVYDKVDYLSSLGKT [FLOT2_HUMAN_163]
inactive: SHP2 C-SH2 domain E139D 0.627 | [1] 0.483 | SHP2 N-SH2 domain L43F 0.606 | SHP2 N-SH2 domain T42A 0.488 | SHP2 N-SH2 domain T52S 0.559 | [2] 0.805

KGVCANRYLAMKEDG [FGF2_HUMAN_215]
inactive: SHP2 C-SH2 domain E139D 1.12 | [1] 1.03 | SHP2 N-SH2 domain L43F 1.14 | SHP2 N-SH2 domain T42A 1.03 | SHP2 N-SH2 domain T52S 1.11 | [2] 1.03

DSKNFDDYMKSLGVG [FABPH_HUMAN_20]
inactive: SHP2 C-SH2 domain E139D 1.73 | [1] 1.33 | SHP2 N-SH2 domain L43F 1.18 | SHP2 N-SH2 domain T42A 1.25 | SHP2 N-SH2 domain T52S 1.3 | [2] 1.13

NVTCTRIYEKVEGGG [FABP5_HUMAN_131]
inactive: SHP2 C-SH2 domain E139D 1.29 | [1] 1.06 | SHP2 N-SH2 domain L43F 1.08 | SHP2 N-SH2 domain T42A 1.47 | SHP2 N-SH2 domain T52S 1.14 | [2] 1.56

VAGGIFLYPANKKSP [F16P1_HUMAN_265_YA]
inactive: SHP2 C-SH2 domain E139D 1.28 | [1] 1.42 | SHP2 N-SH2 domain L43F 1.39 | SHP2 N-SH2 domain T42A 1.45 | SHP2 N-SH2 domain T52S 1.44 | [2] 1.97

SSDNEAFYVDFREAE [FLT3_HUMAN_591_YA]
inactive: SHP2 C-SH2 domain E139D 0.955 | [1] 0.863 | SHP2 N-SH2 domain L43F 0.926 | SHP2 N-SH2 domain T42A 0.822 | SHP2 N-SH2 domain T52S 0.892 | [2] 0.966

TGSSDNEYFAVDFRE [FLT3_HUMAN_589_YA]
inactive: SHP2 C-SH2 domain E139D 0.842 | [1] 0.457 | SHP2 N-SH2 domain L43F 0.58 | SHP2 N-SH2 domain T42A 0.684 | SHP2 N-SH2 domain T52S 0.553 | [2] 0.662

STRNQETYETLKHEK [FCERG_HUMAN_76]
inactive: SHP2 C-SH2 domain E139D 0.855 | [1] 0.779 | SHP2 N-SH2 domain L43F 0.7 | SHP2 N-SH2 domain T42A 1.09 | SHP2 N-SH2 domain T52S 0.853 | [2] 0.895

ALETSRLYEDSGYSS [FBXO5_HUMAN_142]
inactive: SHP2 C-SH2 domain E139D 0.616 | [1] 0.49 | SHP2 N-SH2 domain L43F 0.631 | SHP2 N-SH2 domain T42A 0.588 | SHP2 N-SH2 domain T52S 0.523 | [2] 0.518

DRTDDLVYLNVMELV [FAK2_HUMAN_881]
inactive: SHP2 C-SH2 domain E139D 1.1 | [1] 0.886 | SHP2 N-SH2 domain L43F 1.21 | SHP2 N-SH2 domain T42A 1.1 | SHP2 N-SH2 domain T52S 1.16 | [2] 1.2

AIEDEDAYKASVTRL [FAK2_HUMAN_580_YA]
inactive: SHP2 C-SH2 domain E139D 0.898 | [1] 0.56 | SHP2 N-SH2 domain L43F 0.605 | SHP2 N-SH2 domain T42A 0.601 | SHP2 N-SH2 domain T52S 0.501 | [2] 0.824

KGEHSIVYLKPSYAF [FKBP4_HUMAN_220]
inactive: SHP2 C-SH2 domain E139D 1.11 | [1] 1.52 | SHP2 N-SH2 domain L43F 1.66 | SHP2 N-SH2 domain T42A 2.85 | SHP2 N-SH2 domain T52S 1.54 | [2] 1.31

MSSSYESYDEEEEDG [AFAP1_HUMAN_125]
inactive: SHP2 C-SH2 domain E139D 1.29 | [1] 1.28 | SHP2 N-SH2 domain L43F 1.4 | SHP2 N-SH2 domain T42A 1.19 | SHP2 N-SH2 domain T52S 1.01 | [2] 1.73

TSSLPEGYAEEAVPL [AFAP1_HUMAN_93_YA]
inactive: SHP2 C-SH2 domain E139D 0.742 | [1] 0.725 | SHP2 N-SH2 domain L43F 0.657 | SHP2 N-SH2 domain T42A 0.731 | SHP2 N-SH2 domain T52S 0.584 | [2] 0.883

EAKILKQYDHPNIVK [FER_HUMAN_615]
inactive: SHP2 C-SH2 domain E139D 0.945 | [1] 0.917 | SHP2 N-SH2 domain L43F 1.2 | SHP2 N-SH2 domain T42A 0.934 | SHP2 N-SH2 domain T52S 1.18 | [2] 1.12

SSLPEGAYEEAVPLS [AFAP1_HUMAN_94_YA]
inactive: SHP2 C-SH2 domain E139D 0.613 | [1] 0.565 | SHP2 N-SH2 domain L43F 0.566 | SHP2 N-SH2 domain T42A 0.661 | SHP2 N-SH2 domain T52S 0.796 | [2] 0.67

IASLNEGYAKAFDAA [F16P2_HUMAN_216_YA]
inactive: SHP2 C-SH2 domain E139D 0.618 | [1] 0.612 | SHP2 N-SH2 domain L43F 0.797 | SHP2 N-SH2 domain T42A 0.539 | SHP2 N-SH2 domain T52S 0.676 | [2] 0.671

TLTTNEEYLDLSQPL [FGFR2_HUMAN_769]
inactive: SHP2 C-SH2 domain E139D 0.783 | [1] 0.691 | SHP2 N-SH2 domain L43F 0.754 | SHP2 N-SH2 domain T42A 0.662 | SHP2 N-SH2 domain T52S 0.529 | [2] 0.805

DIHDDQDYLHSLGKA [FLOT1_HUMAN_160]
inactive: SHP2 C-SH2 domain E139D 0.721 | [1] 0.635 | SHP2 N-SH2 domain L43F 0.778 | SHP2 N-SH2 domain T42A 0.73 | SHP2 N-SH2 domain T52S 0.644 | [2] 0.731

IKTGAPQYGSAGTAP [FIP1L1_HUMAN_110_YA]
inactive: SHP2 C-SH2 domain E139D 0.779 | [1] 0.716 | SHP2 N-SH2 domain L43F 0.611 | SHP2 N-SH2 domain T42A 0.762 | SHP2 N-SH2 domain T52S 0.797 | [2] 0.86

SNCTNELYMMMRDCW [FGFR1_HUMAN_730]
inactive: SHP2 C-SH2 domain E139D 0.872 | [1] 0.779 | SHP2 N-SH2 domain L43F 0.677 | SHP2 N-SH2 domain T42A 0.727 | SHP2 N-SH2 domain T52S 0.881 | [2] 0.831

FHRNDSIYEELQKHD [FHIT_HUMAN_114]
inactive: SHP2 C-SH2 domain E139D 0.846 | [1] 0.889 | SHP2 N-SH2 domain L43F 1.07 | SHP2 N-SH2 domain T42A 0.726 | SHP2 N-SH2 domain T52S 0.893 | [2] 1.02

TDDDKNIYLTLPPND [FCG2A_HUMAN_304]
inactive: SHP2 C-SH2 domain E139D 0.713 | [1] 0.774 | SHP2 N-SH2 domain L43F 0.564 | SHP2 N-SH2 domain T42A 0.872 | SHP2 N-SH2 domain T52S 0.748 | [2] 0.648

TPEKEVGYLEFTGPP [FAK2_HUMAN_849]
inactive: SHP2 C-SH2 domain E139D 0.846 | [1] 0.698 | SHP2 N-SH2 domain L43F 0.532 | SHP2 N-SH2 domain T42A 1.37 | SHP2 N-SH2 domain T52S 0.975 | [2] 0.622

NRMPVAPYWTSPEKM [FGFR1_HUMAN_154]
inactive: SHP2 C-SH2 domain E139D 1.03 | [1] 0.861 | SHP2 N-SH2 domain L43F 0.805 | SHP2 N-SH2 domain T42A 0.89 | SHP2 N-SH2 domain T52S 1.06 | [2] 1.07

YETADGGYMTLNPRA [FCG2A_HUMAN_288]
inactive: SHP2 C-SH2 domain E139D 0.654 | [1] 0.59 | SHP2 N-SH2 domain L43F 0.527 | SHP2 N-SH2 domain T42A 0.507 | SHP2 N-SH2 domain T52S 0.568 | [2] 0.576
